Results: the RNAGym collection of RNA variant scans (doi:10.7554/elife.90254)
Read counts are not given, so values of variants with three or more changes are uncertain.

B1: OR4K15 (parent)
chain: GUUAACGGUCAUAGGCCAUGGAAACUAGGAGCACCAUUUCGCUGCCAGUGAAGAAAUGAACAAAGAAAAUCUGGGCCAGGCAGGCAUCAAAAGAAAUAGUCUUGCGCUCAACCAGAAAGUCUGUAAUCAUUUUAAGGGUA

Variants of: B1
Experiment: self-cleavage, relative activity (ratio to wild type); higher = more cleavage; in vitro, sequencing; the parent is a self-cleaving ribozyme

| Variant | self-cleavage |
| --- | --- |
| U2G A5G A96G U100C | 1.43 |
| A63U U97C A117G | 2.11 |
| A27U A96G A118G | 1.15 |
| U38C A51C A78U A114G | 0.05 |
| U2C U43C A55G U100C U132C | 2.65 |
| U9C A18G C40U A54G U102C | 1.94 |
| U57C A67G U127A | 0.57 |
| A11U A27G A92G | 0.75 |
| U12C A22G A64G A67G A78G A125U A126G U132C | 0.1 |
| U49C A86G A116G A126U A140G | 0.56 |
| A59G A68G A140G | 1.23 |
| U26C A52G U102C U120C | 2.19 |
| A33U A64G U122A A126G U132A | 0.78 |
| A36U A67G C109U A110G A116G A134G | 0.01 |
| U3C A36U U120A | 1.34 |
| U87C A95G U120C | 0.69 |
| A59G A64G A129G | 0.77 |
| A33C A54G A129U | 1.32 |
| A51G A67G U139C | 1.31 |
| A91U A96G A116G U122C U131A | 0.62 |
| U2C U3C A24U | 0.69 |
| A5G A82G U132A | 0.8 |
| A24G A30G A54G A59G U87A | 1.64 |
| A78G A90G A116G A118C U120C U133C | 0.01 |

| Variant | self-cleavage |
| --- | --- |
| A5G A67G G83A A89U | 1.09 |
| G44A U72C A89G | 0.3 |
| G20A U39C U127A | 2.51 |
| U38C A56G A69G U131A G136A | 1.18 |
| A5G A54U A68G | 1.02 |
| A5G A47U A94G A114G | 0.14 |
| A23C A52G A55G A95G A135G | 1.25 |
| U72C A114U U131C | 0 |
| U38C A78U A117G | 0.09 |
| A63G A95C A116G | 0.2 |
| U9C A56G A69G C105G | 0.08 |
| A54G A82G A94U | 0.17 |
| C61U C77U G123A | 2.62 |
| A60G A66G G80A | 0.16 |
| A22G A51G A114U | 0 |
| C25U A64G U132C | 1.02 |
| A52G U57A U97C | 0.35 |
| U2C A13G U26G A55G U57C A95G U130C | 1.69 |
| U2A U3C A24G U43A A82G U103C | 1.42 |
| G1A A22G A82U U132C | 0.34 |
| A51G A82G U102A | 0.11 |
| A36U U49C G58U | 1.47 |
| A18U A56C A66G | 1.34 |
| A51U U100G U103A A110C | 0.03 |

| Variant | self-cleavage |
| --- | --- |
| A86G A91G A94G | 0.15 |
| A18U A52U A62G | 1.56 |
| A56G A63G U130C | 1.71 |
| G15C A23G U70A U108A | 0.08 |
| A52U A55G A118G | 1.42 |
| A67G A91G A129G | 0.73 |
| A18G A60G U132C | 1.38 |
| A54G A95G A96U | 1.43 |
| A4G A55G A64G A66U A90U | 0.86 |
| A92G U102C A116G | 1 |
| U43A A89G A92G A114U | 0.01 |
| U49C U108C A111U | 0 |
| A33G A82G G136A | 0.69 |
| A55G A62C A63G | 1.36 |
| A56G A63G U122C | 0.85 |
| A51G A62U A96G | 1.98 |
| A11U A24G A62G A92G | 1.24 |
| G8C A56G A62U | 2.32 |
| A55U A60U U87A U132C | 2.27 |
| U19C A89U A91G A117U U130C | 0.49 |
| U9C A60G U97C U122A | 0.3 |
| C17U U39C G119A U131C G138A | 1.85 |
| A63G A67G A94U | 1.31 |
| A82U A94G A110G | 0.05 |

| Variant | self-cleavage |
| --- | --- |
| C46U A66G A82G | 0.58 |
| C16U G31A U39A A114G | 0.18 |
| U49C G119U A140G | 1.54 |
| U19C A94U A110G | 0.24 |
| C35U A52G G79A | 0.21 |
| A5U A13U A67G | 1.25 |
| U9C G28A G58U | 0.35 |
| A13G A30G A111G | 0.04 |
| A18G A51G A117U U127C | 0.7 |
| U9A A33C U103C | 1.2 |
| U9C A23G U49A A86U U97C A111G | 0 |
| A62C A67U A140U | 1.13 |
| A5U U57C A90G A114U | 0.04 |
| A36G U100C U122C | 2.18 |
| A69U A95U U130C | 2.11 |
| A23G A94G A116G | 0.63 |
| U49C A98U A125G U133A | 0.88 |
| A59G U72A A110G | 0.12 |
| A62U A69C A95G | 1.81 |
| C35U A47U A55G U127C U131C | 0.35 |
| U87C A117G U120A | 1.71 |
| A63G A96G A116G U131C | 1.13 |
| A18G A33G U87A U120C | 0.59 |
| A11U A56C A95G | 2.05 |

| Variant | self-cleavage |
| --- | --- |
| A11G U37C A63G A94U U97C | 0.83 |
| U38A A68G A90G | 1.72 |
| U19C A27U A64G U97A | 1.19 |
| A11G C42A U130G | 0.68 |
| A22G A64G U131C | 0.86 |
| A55G A59G U97A | 1.44 |
| A51G A111G A116G | 0.03 |
| U43C A67G A78G G83U A96G | 0.15 |
| A11G A36G A67G | 0.79 |
| A11G A90G U120A | 0.37 |
| A36G U87C A111U A114G | 0.04 |
| U2C U26C U70C G74A A92G A96C U103A | 0.01 |
| U3A U49C A116G U122C | 0.38 |
| A4G A30G A33C U72C U120C A125G U132C | 0.01 |
| U38C A96C U97A | 1.46 |
| A60G C85A A125G | 0.65 |
| A22G A33G G83A | 1.4 |
| A22G A33G U37C A51U A129G | 1.58 |
| A47G U70C U127C | 0.24 |
| A67U G104A A110G | 0 |
| A24G A94G A111G | 0.01 |
| A33C G41A A82U | 0.18 |
| U39C A134G A135G | 1.12 |
| U57A A59C A66G A78C A82G A92G | 0.33 |

| Variant | self-cleavage |
| --- | --- |
| A59G A68G A92U | 1.7 |
| U9C A33G U108A | 0.05 |
| A36G U49A A82G | 0.44 |
| A55G A60G G79U | 0.21 |
| U2C A78G A86G U120G | 0.15 |
| U38C U39C A129U | 0.93 |
| A30G U39A A125G A126G | 0.47 |
| A52G A62G A68G U97A U122C | 0.82 |
| A5G A56G A125G | 0.79 |
| A67G A86G A140G | 2.22 |
| A5G U57C C128A | 0 |
| G20A A24U U132C | 1.43 |
| A22G A82G U97C | 0.74 |
| A52U U100C U120C | 2.62 |
| U26A A27G A69G U72C | 0.31 |
| A4G A13U A117G | 0.37 |
| U43C A51G A117G A140U | 2.02 |
| A51U A64G A110G | 0.11 |
| A18C A23G A54G A63G U120C | 0.2 |
| A59G A62G A114G | 0.23 |
| A22U U38C U49C A68G | 1.02 |
| G15A A52G A68G U122C A140G | 0.79 |
| A118G U120A A126C | 1.62 |
| A22G U38C A117U U132C | 0.79 |

| Variant | self-cleavage |
| --- | --- |
| A4G G8A U12A | 1.56 |
| C34U U43A A60G | 1.83 |
| U2C A30U A47G A52G A117U | 0.08 |
| A54U G74U A82U A129G | 0.1 |
| A52U A68G A114G | 0.81 |
| U19A A55G A91G A125U | 0.5 |
| U43C U97C U122C | 1.04 |
| U9C U102A A134G | 0.26 |
| A5G A23G U57G | 0.97 |
| U37C A54U A92U A118G | 1.31 |
| A30U G31U A54G A56G A66G U102C | 2.02 |
| A51G A92G U102C A117G | 1.86 |
| A69C A90G A129U A135U | 0.21 |
| A18G A59G U102C C105U A111G U122C | 0.01 |
| A5G A24G U72C | 0.14 |
| A4G U38C C71A A118G U132A | 0.03 |
| A54G A96G U131C | 1.76 |
| C25U U49C A78U U102C | 1.31 |
| U39C A94G U97C | 1.36 |
| A59C A64G U72C A118G U130C | 0.02 |
| G8A A33G U103C A117U U120A | 0.61 |
| A51U U87C A118U | 0.43 |
| A18G U26C U102A G138A | 1.88 |
